Values of other authors as cited in patent publication US11732259B2, “Peptide oligonucleotide conjugates” (Sarepta Therapeutics, Inc., priority 2011, dated 2023).

Test system: exon 23 of the dystrophin gene
Details: MDX mouse; cited from earlier work

GGCCAAACCTCGGCTTACCTGAAAT (morpholino, chemistry not fully specified) [M23D]
Exon 23 skipping and restoration of functional dystrophin expression: known to induce
